The whole screen tested about 310,000 compounds, of which about 2,200 (0.71%) showed an effect of 50% or more. The effect is printed as a negative number. Some of the results follow.
molecular target: human ether-à-go-go-related gene (hERG) potassium channel (human, UniProt Q12809); experiment: primary screen, population patch clamp on CHO cells stably expressing hERG
Sequence (Q12809 whole entry, looked up): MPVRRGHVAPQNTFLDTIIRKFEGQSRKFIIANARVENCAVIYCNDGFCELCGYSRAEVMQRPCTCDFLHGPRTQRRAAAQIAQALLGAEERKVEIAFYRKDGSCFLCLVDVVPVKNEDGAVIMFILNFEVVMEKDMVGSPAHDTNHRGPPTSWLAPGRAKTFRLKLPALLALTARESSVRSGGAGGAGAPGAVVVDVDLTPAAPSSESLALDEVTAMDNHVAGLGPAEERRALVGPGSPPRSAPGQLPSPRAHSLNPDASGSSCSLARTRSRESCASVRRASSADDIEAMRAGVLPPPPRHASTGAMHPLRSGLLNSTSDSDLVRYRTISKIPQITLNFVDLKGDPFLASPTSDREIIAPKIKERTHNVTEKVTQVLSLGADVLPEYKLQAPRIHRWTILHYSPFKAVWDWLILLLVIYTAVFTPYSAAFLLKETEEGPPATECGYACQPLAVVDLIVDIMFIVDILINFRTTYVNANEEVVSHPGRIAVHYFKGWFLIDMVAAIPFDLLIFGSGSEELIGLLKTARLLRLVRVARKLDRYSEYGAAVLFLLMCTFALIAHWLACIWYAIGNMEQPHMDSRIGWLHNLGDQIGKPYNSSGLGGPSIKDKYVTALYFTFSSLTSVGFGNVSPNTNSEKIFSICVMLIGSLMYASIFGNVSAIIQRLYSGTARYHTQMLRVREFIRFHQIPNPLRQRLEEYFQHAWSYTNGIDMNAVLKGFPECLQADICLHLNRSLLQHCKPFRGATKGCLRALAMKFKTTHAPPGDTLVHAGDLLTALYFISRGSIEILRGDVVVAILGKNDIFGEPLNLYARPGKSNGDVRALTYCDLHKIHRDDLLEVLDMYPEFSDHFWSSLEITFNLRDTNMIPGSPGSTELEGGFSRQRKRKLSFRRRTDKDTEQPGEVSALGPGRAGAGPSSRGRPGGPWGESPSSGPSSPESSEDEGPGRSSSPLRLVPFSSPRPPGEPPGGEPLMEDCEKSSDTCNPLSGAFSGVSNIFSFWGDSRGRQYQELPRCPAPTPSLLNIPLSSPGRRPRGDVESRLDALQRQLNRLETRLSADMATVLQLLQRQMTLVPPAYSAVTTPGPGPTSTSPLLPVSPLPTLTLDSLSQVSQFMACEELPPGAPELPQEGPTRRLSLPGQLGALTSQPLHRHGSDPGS

| SMILES | hERG current change (%, negative = inhibition) at 1uM |
| --- | --- |
| COc1cccc(CN2CCNC(=O)C2CC(=O)NCCCN2CCCC2=O)c1 (stereo not shown) | 6.76% |
| CC(=O)c1ccc(NC(=S)NNC(=O)NC2CCCCC2)cc1 | 5.2% |
| CNC(=O)Nc1cccc(-c2ccnc(C)n2)c1 | 11.8% |
| Cc1ccc(S(=O)(=O)N2CCN(CCOc3c(Cl)cccc3Cl)CC2)cc1C | 2.9% |
| Cc1cccc2c1NC(=O)/C2=C\C(=O)c1cccs1 | 6.6% |
| CN1CCN(CCCNC(=S)Nc2ccc(F)c(Cl)c2)CC1 | 1.71% |
| O=[N+]([O-])c1ccc(Cc2cncc(O)c2)cc1 | 8.72% |
| COc1ccccc1/C=C\C=N\n1c(-c2ccc(Cl)cc2Cl)n[nH]c1=S | 14.1% |
| COc1cc(/C=C2/NC(=O)N(Cc3ccccc3F)C2=O)ccc1Oc1ccc([N+](=O)[O-])cn1 | 20.9% |
| CCC(O)C1CCN(C(=O)c2ccc(OC3CCN(Cc4ccccn4)CC3)cc2)CC1 (stereo not shown) | 14.6% |
| Cc1ccc(C2N(c3ccc(F)cc3)C(=O)C3CCCN32)cc1 (stereo not shown) | 6.14% |
| CC(C(=O)Nc1cccc([N+](=O)[O-])c1)[n+]1ccccc1.[Br-] (stereo not shown) | 3.14% |
| O=C(NCc1cn2ccsc2n1)c1c(F)cccc1Cl | 14.5% |
| CSC1=N/C(=C\c2ccc(C)s2)C(=O)S1 | 15.4% |
| Cn1c(=O)n(C)c2cc([N+](=O)[O-])c(N3CCN(C(=O)c4ccccc4Br)CC3)cc21 | -20.4% |
| Cc1ccc(C(=O)c2nocc2C(=O)c2cccs2)cc1 | 4.06% |
| CCc1ccc(N(C(=O)c2snc(C(N)=O)c2N)C(C(=O)NC2CCCC2)c2ccco2)cc1 (stereo not shown) | -1.12% |
| O=S(=O)(NCC(c1ccco1)N1CCN(c2ccccc2F)CC1)c1ccc2c(c1)OCCO2 (stereo not shown) | 30.7% |
| Cc1cc(C)c(OCC(=O)Nc2cccc(O)c2)cc1C | 9.06% |
| COc1ccc(Cl)cc1S(=O)(=O)n1c([N+](=O)[O-])cnc1C | -19% |
| COc1ccc(C(=O)Nn2c(SCC(=O)NC3CCCC3)nc3ccccc3c2=O)cc1 | -9.3% |
| CCCOc1ccc(N2C(=O)CC(N(O)c3ccccc3)C2=O)cc1 (stereo not shown) | 9.72% |
| COC(=O)C(C)N(c1ccc(C)cc1)S(=O)(=O)c1c(C)[nH]c(=O)[nH]c1=O (stereo not shown) | 6.77% |
| O=C(c1ccc(Cl)s1)N1CCCC1 | 6.35% |
| CC(=NCc1ccc2c(c1)OCO2)c1c(O)n(Cc2ccccc2)c(=O)[nH]c1=O | 3.16% |
| Cc1ccc(N=Cc2nc(/C=C/c3cccc([N+](=O)[O-])c3)oc2O)cc1 | 7.1% |
| COC(=O)C1=C(c2ccccc2OCc2ccccc2)C[C@@H]2CC[C@H]1N2C(=O)NC1CCN(Cc2ccccc2)CC1 | 13.2% |
| Cc1cccc(CNC(=O)Cn2ccc3cc(S(=O)(=O)N4CCCC4)ccc32)c1 | 19.4% |

| SMILES | hERG current change (%, negative = inhibition) at 1uM |
| --- | --- |
| CCCCCC(=O)Nc1nc(C)c(-c2csc(Nc3cc(Cl)ccc3OC)n2)s1 | 15.7% |
| CN(C)C(=S)Nc1ccc(S(=O)(=O)N2CCCCC2)cc1 | -3.42% |
| COc1ccc(/C=N/NC(=O)CNC(=O)c2ccc3c(c2)OCCO3)c(C(=O)O)c1OC | 10.3% |
| CCOc1ccccc1N(CC(=O)Nc1cccc2ccccc12)S(C)(=O)=O | 8.32% |
| CC(C)(C)OC(=O)N1CCC(C(=O)N[C@H](Cc2ccccc2)C(=O)O)CC1 | 11.5% |
| O=C1CN(Cc2cc(=O)oc3cc4c(cc23)CCC4)CCN1 | -29.3% |
| OCC1(Cc2ccccc2)CCN(Cc2cnc(-c3ccc(Cl)cc3)nc2)CC1 | -13.4% |
| COc1cccc(C2C(C(=O)c3cc4ccccc4o3)=C(O)C(=O)N2c2cc(C)on2)c1 (stereo not shown) | 12.1% |
| O=C(CN1c2ccccc2Sc2ccccc21)NNC(=S)Nc1ccc(Cl)cc1 | 11.5% |
| O/N=C1\CC/C(=N\O)c2nn(-c3ccccc3Cl)nc21 | 3.48% |
| CC(C)(C)OC(=O)NC(CNCc1ccccc1)Cc1ccccc1 (stereo not shown) | 3.93% |
| O=C(NC1CCN(C(=O)Nc2ccc(F)cc2)CC1)c1cccc(F)c1 | 9.2% |
| Cc1ccc(NC(=O)CSc2nnc(CNC(=O)c3ccco3)n2C)cc1 | -1.97% |
| C=C(C)C1CC=C(C)/C(=N\NC(=S)Nc2ccc(C)cc2)C1 (stereo not shown) | 13.7% |
| CCOC(=O)c1ccc(NC(=O)c2cc(=O)[nH]c3ccccc23)cc1 | 9.68% |
| CCOC(=O)N1CCN(S(=O)(=O)N2CCCC(C(=O)NCc3ccc(OC)cc3OC)C2)CC1 (stereo not shown) | 5.69% |
| CCOc1c(C)cnc2c1c(=O)n(CC(=O)NCC1CCCO1)c(=O)n2C (stereo not shown) | 10.6% |
| Cc1ccc(C(=O)NC2CC2)cc1S(=O)(=O)N1CCOCC1 | 7.61% |
| Cc1cc(C)c(C)c(C(=O)CSc2nnc(-c3ccc4[nH]c(C)c(C)c4c3)o2)c1C | 11.6% |
| CCc1ccc(OCC(=O)Nc2ccc(-c3nc4ccccc4o3)c(O)c2)cc1 | 3.68% |
| CC(C)Cc1cc(C(=O)NCc2ccco2)no1 | 4.97% |
| O=C(CC1Sc2ccccc2NC1=O)Nc1cccnc1 (stereo not shown) | -6.25% |
| COc1cc(C(=O)N2CCN(c3ccccc3F)CC2)ccc1OCC(=O)N1CCOCC1 | -34.2% |
| CC(=O)c1ccc(NC(=O)C2(S(=O)(=O)c3ccccc3)CC2)cc1 | 8.42% |
| COc1ccc2oc(C(=O)OCC(=O)NC3(C#N)CCCC3)c(C)c2c1 | 15.8% |
| CCOC(=O)C1=C(CSc2nccn2C)NC(=O)NC1c1ccc2c(c1)OCO2 (stereo not shown) | 8.12% |
| CC(C)Cc1nnc(NC(=O)CCC(=O)NCc2ccccc2Cl)s1 | 13.1% |

Reference: article PMC4336329 (PLoS ONE, 2015)
